Laboratory results as given in the supplement of paper PMC4604168 (melanoma cell lines).
This is one part of the list. Many values rest on one well or one pass, so single values are uncertain.

System: WM115
Assay: cell count relative to DMSO control; melanoma cells; higher = more viable cells
Details: library dose: low library concentration; 72 h; first compound 0.4 µM
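Further: cell number obtained by counting DAPI-stained nuclei in high-throughput microscope images with image analysis software, screen run in 1,536-well plates.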

| Structure (SMILES) | cell count [%] |
| --- | --- |
| Cn1sc(=O)n(Cc2ccccc2)c1=O + Cn1c(Nc2ccc(C(F)(F)F)cc2)nc2cc(Oc3ccnc(-c4ncc(C(F)(F)F)[nH]4)c3)ccc21 [CHIR265] (partner dose 0.08 µM) | 58.9 |
| CCCCCCCCCCCCCCCCCCOP(=O)([O-])OC1CC[N+](C)(C)CC1 [Perifosine] + Clc1ccc(Nc2nnc(Cc3ccncc3)c3ccccc23)cc1 [vatalanib] (partner dose 2 µM) | 104 |
| C[C@@H](N)c1ccc(C(=O)Nc2ccnc3[nH]ccc23)cc1 + Nc1cccc2c1CN(C1CCC(=O)NC1=O)C2=O [lenalidomide] (partner dose 1 µM) | 113 |
| CCCCCCCCCCCCCCCCCCOP(=O)([O-])OC1CC[N+](C)(C)CC1 [Perifosine] + NC1(c2ccc(-c3nc4ccn5c(=O)[nH]nc5c4cc3-c3ccccc3)cc2)CCC1 [MK2206] (partner dose 0.4 µM) | 69.3 |
| Cn1sc(=O)n(Cc2ccccc2)c1=O + NC(=O)c1ccc(N(C(N)=O)c2c(F)cccc2F)nc1-c1ccc(F)cc1F [VX702] (partner dose 0.4 µM) | 97.1 |
| Cn1sc(=O)n(Cc2ccccc2)c1=O + CC(=O)c1c(C)c2cnc(Nc3ccc(N4CCNCC4)cn3)nc2n(C2CCCC2)c1=O [palbociclib] (partner dose 0.04 µM) | 74 |
| Cn1sc(=O)n(Cc2ccccc2)c1=O + COc1ccc(-c2ccc3c(N4CCOCC4)nc(N4C[C@@H](C)O[C@@H](C)C4)nc3n2)cc1CO [KU0063794] (partner dose 0.02 µM) | 106 |
| Cn1sc(=O)n(Cc2ccccc2)c1=O + O=C1NC(=O)/C(=C/c2ccc(-c3ccc(F)cc3O)o2)S1 [AS252424] (partner dose 1 µM) | 101 |
| Cn1sc(=O)n(Cc2ccccc2)c1=O + COc1cc(Nc2ncc(F)c(Nc3ccc4c(n3)NC(=O)C(C)(C)O4)n2)cc(OC)c1OC [Tamatinib] (partner dose 0.4 µM) | 91.6 |
| C[C@@H](N)c1ccc(C(=O)Nc2ccnc3[nH]ccc23)cc1 + Nc1nc(F)nc2c1ncn2[C@@H]1O[C@H](CO)[C@@H](O)[C@@H]1O [fludarabine] (partner dose 0.2 µM) | 98.3 |
| Cn1sc(=O)n(Cc2ccccc2)c1=O + Nc1nc(F)nc2c1ncn2[C@@H]1O[C@H](CO)[C@@H](O)[C@@H]1O [fludarabine] (partner dose 0.2 µM) | 90.2 |
| Cn1sc(=O)n(Cc2ccccc2)c1=O + c1cc(-c2cnn3cc(-c4ccc(OCCN5CCCCC5)cc4)cnc23)ccn1 [Dorsomorphin] (partner dose 0.4 µM) | 99.1 |
| Cn1sc(=O)n(Cc2ccccc2)c1=O + C=CCn1c(=O)c2cnc(Nc3ccc(N4CCN(C)CC4)cc3)nc2n1-c1cccc(C(C)(C)O)n1 [MK1775] (partner dose 0.02 µM) | 89.4 |
| Cn1sc(=O)n(Cc2ccccc2)c1=O + OCCn1cc(-c2cnc3nnn(Cc4ccc5ncccc5c4)c3n2)cn1 [PF04217903] (partner dose 1 µM) | 103 |
| Cn1sc(=O)n(Cc2ccccc2)c1=O + Cn1c(=O)n(-c2ccc(C(C)(C)C#N)cc2)c2c3cc(-c4cnc5ccccc5c4)ccc3ncc21 [NVP-BEZ235] (partner dose 0.004 µM) | 105 |
| Cn1sc(=O)n(Cc2ccccc2)c1=O + C#Cc1cccc(Nc2ncnc3cc(OCCOC)c(OCCOC)cc23)c1 [erlotinib] (partner dose 0.8 µM) | 89 |
| Cn1sc(=O)n(Cc2ccccc2)c1=O + COC(=O)c1sccc1S(=O)(=O)Nc1ccc(Nc2ccccc2)cc1OC [GSK0660] (partner dose 1 µM) | 96.4 |
| C[C@@H](N)c1ccc(C(=O)Nc2ccnc3[nH]ccc23)cc1 + COc1ccc(Cl)c(Nc2nc3ccccc3nc2NS(=O)(=O)c2cccc(NC(=O)C(C)(C)N)c2)c1 [XL147] (partner dose 0.8 µM) | 105 |
| C[C@@H](N)c1ccc(C(=O)Nc2ccnc3[nH]ccc23)cc1 + CCc1ccc(CCOc2ccc(CC3SC(=O)NC3=O)cc2)nc1 [pioglitazone] (partner dose 2 µM) | 103 |
| CCCCCCCCCCCCCCCCCCOP(=O)([O-])OC1CC[N+](C)(C)CC1 [Perifosine] + COc1ccc(C2=N[C@@H](c3ccc(Cl)cc3)[C@@H](c3ccc(Cl)cc3)N2C(=O)N2CCNC(=O)C2)c(OC(C)C)c1 [Nutlin-3] (partner dose 0.1 µM) | 104 |

| Structure (SMILES) | cell count [%] |
| --- | --- |
| CCCCCCCCCCCCCCCCCCOP(=O)([O-])OC1CC[N+](C)(C)CC1 [Perifosine] + CNC(=O)c1cc(Oc2ccc(NC(=O)Nc3ccc(Cl)c(C(F)(F)F)c3)cc2)ccn1 [sorafenib] (partner dose 0.4 µM) | 90.8 |
| C[C@@H](N)c1ccc(C(=O)Nc2ccnc3[nH]ccc23)cc1 + COc1cc(N2CCC(N3CCN(C)CC3)CC2)ccc1Nc1ncc(Cl)c(Nc2ccccc2S(=O)(=O)C(C)C)n1 [NVP-TAE684] (partner dose 0.08 µM) | 106 |
| Cn1sc(=O)n(Cc2ccccc2)c1=O + Nc1cccc2c1CN(C1CCC(=O)NC1=O)C2=O [lenalidomide] (partner dose 1 µM) | 92.4 |
| CCCCCCCCCCCCCCCCCCOP(=O)([O-])OC1CC[N+](C)(C)CC1 [Perifosine] + O=C1NC(=O)/C(=C/c2ccc(-c3ccc(F)cc3O)o2)S1 [AS252424] (partner dose 1 µM) | 90.3 |
| Cn1sc(=O)n(Cc2ccccc2)c1=O + O=C(Nc1ccccc1)c1cc([N+](=O)[O-])ccc1Cl [GW9662] (partner dose 2 µM) | 101 |
| Cn1sc(=O)n(Cc2ccccc2)c1=O + Clc1ccc(Nc2nnc(Cc3ccncc3)c3ccccc23)cc1 [vatalanib] (partner dose 2 µM) | 100 |
| C[C@@H](N)c1ccc(C(=O)Nc2ccnc3[nH]ccc23)cc1 + C[C@@H](Oc1cc(-c2cnn(C3CCNCC3)c2)cnc1N)c1c(Cl)ccc(F)c1Cl [Crizotinib] (partner dose 0.2 µM) | 114 |
| C[C@@H](N)c1ccc(C(=O)Nc2ccnc3[nH]ccc23)cc1 + CC(C)CCN1c2nc(Nc3cc(F)c(O)c(F)c3)ncc2N(C)C(=O)C1C [BID1870] (partner dose 0.2 µM) | 113 |
| C[C@@H](N)c1ccc(C(=O)Nc2ccnc3[nH]ccc23)cc1 + C[C@]1(c2nc3c(C(N)=O)cccc3[nH]2)CCCN1 [Veliparib] (partner dose 1.4 µM) | 102 |
| Cn1sc(=O)n(Cc2ccccc2)c1=O + COc1ccc(C2=N[C@@H](c3ccc(Cl)cc3)[C@@H](c3ccc(Cl)cc3)N2C(=O)N2CCNC(=O)C2)c(OC(C)C)c1 [Nutlin-3] (partner dose 0.1 µM) | 93.2 |
| CCCCCCCCCCCCCCCCCCOP(=O)([O-])OC1CC[N+](C)(C)CC1 [Perifosine] + CCCCCCCCCCCC1=C(O)C(=O)C=C(O)C1=O [Embelin] (partner dose 1.2 µM) | 89.3 |
| CCCCCCCCCCCCCCCCCCOP(=O)([O-])OC1CC[N+](C)(C)CC1 [Perifosine] + COC(=O)c1sccc1S(=O)(=O)Nc1ccc(Nc2ccccc2)cc1OC [GSK0660] (partner dose 1 µM) | 108 |
| C[C@@H](N)c1ccc(C(=O)Nc2ccnc3[nH]ccc23)cc1 + Cc1cc(Nc2cc(N3CCN(C)CC3)nc(/C=C/c3ccccc3)n2)n[nH]1 [ENMD2076] (partner dose 0.04 µM) | 102 |
| CCCCCCCCCCCCCCCCCCOP(=O)([O-])OC1CC[N+](C)(C)CC1 [Perifosine] + COCC[n+]1c2c(n(Cc3cnccn3)c1C)C(=O)c1ccccc1C2=O [YM155] (partner dose 0.0004 µM) | 103 |
| C[C@@H](N)c1ccc(C(=O)Nc2ccnc3[nH]ccc23)cc1 + O=C(Nc1cccc(Cl)c1)Nc1ncc(CCNc2ncnc3ccsc23)s1 [SNS314] (partner dose 0.0008 µM) | 65.4 |
| CCCCCCCCCCCCCCCCCCOP(=O)([O-])OC1CC[N+](C)(C)CC1 [Perifosine] + C=CCn1c(=O)c2cnc(Nc3ccc(N4CCN(C)CC4)cc3)nc2n1-c1cccc(C(C)(C)O)n1 [MK1775] (partner dose 0.02 µM) | 97.6 |
| CCCCCCCCCCCCCCCCCCOP(=O)([O-])OC1CC[N+](C)(C)CC1 [Perifosine] + C=C(c1ccc(C(=O)O)cc1)c1cc2c(cc1C)C(C)(C)CCC2(C)C [Bexarotene] (partner dose 2 µM) | 97.2 |
| CCCCCCCCCCCCCCCCCCOP(=O)([O-])OC1CC[N+](C)(C)CC1 [Perifosine] + Nc1ncn([C@H]2C[C@H](O)[C@@H](CO)O2)c(=O)n1 [decitabine] (partner dose 0.1 µM) | 96.3 |
| C[C@@H](N)c1ccc(C(=O)Nc2ccnc3[nH]ccc23)cc1 + C[C@]1(O)C[C@@H](c2nc(-c3ccc4ccc(-c5ccccc5)nc4c3)c3c(N)nccn32)C1 [OSI906] (partner dose 0.4 µM) | 112 |
